The source gives no read counts; variants with many changes may rest on few reads.
B1: LINE1-full (parent)
chain: UACGUAGGUGGUUUUCCCCUGAUAGUGCUAAGGGGGCCUGGAAGUUUGGACUGGGCAGAGCUCAACACAGCGUGGCAAAGUGGCUGUGGCUAGACUGCCUCUCUGGAUUCCUCGUCACUCAGCAGGGCAUCUCUGAGAGAAAUGCC

Variants of: B1
Experiment: self-cleavage, relative activity (ratio to wild type); higher = more cleavage; in vitro, sequencing; the parent is a self-cleaving ribozyme

Variant | self-cleavage
UACGUAGGUGGUUCUCCCCUGAUAGUGCUAAGGGGGCCUGGAAGUUUGGACUGGGCAGAGCUCAACACAGCGUGGCAAAGUGGCUGUAGCUAGACUGCCUCUCUGGAUUCCUCAUCACUCAGCAGGGCAUCUCUGAGAGAAAUGCC [U14C G88A G114A] | 0.08
UACGUAGGUGGUUCUCCCCUGAUAGUGCUAAGGGGGCCUGGAAGUUUGGACUGGGCAGAGCUCAACACAGCGUGACAAAGUGGCUGUGGCUAGACUGCCUCUCUGGAUUCCUCGUCACUCAGCAGGGCAUCUCUGAGAGAGAUGCC [U14C G75A A141G] | 0.86
UACGUAGGUGGUUCUCCCCUGAUAGUGCUAAGGGGGCCUGGAAGUUUGGACUGAGCAGAGCUCAACACAGCGUGGCAAAGUGGCUGUGGCUAGACUGCCUCUCUGGAUUCCUCGUCACUCAGCAGGGCAUCUCUGAGAGAAAAGCC [U14C G54A U143A] | 0.54
UACGUAGGUGGUUCUCCCCUGAUAGUGCUAAGGGGGCCUGGAAGUUUGGACUGGGCAGAGCUCAACACAACGUGGCAAAGUGGCUGUGGCUAGACUGCCUCUCUGGAUUCCUCGUCACACAGCGGGGCAUCUCUGAGAGAAAUGCC [U14C G70A U119A A124G] | 0
UACGUAGGUGGUUCCCCCCUGAUAGUGCUAAGGGGGCCUGGAAGUUUGGACUGGGCAGAGCUCAACACAGCGUGGCUAAGUGGCUGUGGCUAGACUGCCUCUCUGGAUUCCUAGUCACUCAGCAGGGCAUCUCUGAGAGAAAUGCC [U14C U15C A77U C113A] | 1.57
UACGUAGGUGGUUCUCCCCUGAUAGUGCUAAGGGGGCCUGGAAGUUUGGACUGAGCAGAGCUCUACACAGCGUGGCAAAGUGGCUGUGGCUAGACUGCCUCCCUGGAUUCCUCGUCACUCAGCAGGGCAUCUCUGAGAGAAAUGCC [U14C G54A A64U U102C] | 0.2
UACGUAGGUGGUUCCCCCCUGAUAGUGCUGAGGGGGCCUGGAAGUUUGGACUGGGCAGAGCUCAACACGGCGUGGCAAAGUGGCUGUGGCUAGACUGCCUCUCUGGAUUCCUCGUCACUCAGCAGGGCAUCUCUGAGAGAAAUGCC [U14C U15C A30G A69G] | 0
UACGUAGGUGGUUCUCCCCUGAUAGUGCUAAGGGGGCCUGGAAGUUUGGACUGAGCAGAGCUCAACACAGCGUGGCAAAGUGCCUGUGGCUAGACCGCCUCUCUGGAUUCCUCGUCACUCAGCAGGGCAUCUCUGAGAGAAAUGCC [U14C G54A G83C U96C] | 0.05
UACGUAGGUGGUUCUCCCCUGAUAGUGCUAAGGGGGCCUGGAAGUUUGGACUGGGCAGAACUCAACACAGCGUGGCAAGGUGGCCGUGGCUAGACUGCCUCUCUGGAUUCCUCGUCACCCAGCAGGGCAUCUCUGGGAGAAAUGCC [U14C G60A A79G U85C U119C A136G] | 0.09
UACGUAGGUGGUUCCCCCCUGAUAGUGCUACGGGGGCCUGGAAGUUUGGACUGGGCAGAGCACAACACAGCGUGGCAAAGUGGCUGUGGCUAGACUGCCUCUCUGGAUUCCUCGACACUCAGCAGGGCACCUCUGAGAGAAAUGCC [U14C U15C A31C U62A U115A U130C] | 0
UACGUAGGUGGUUCCCCCCUGAUAGUGCUAAGGGGGCCUGGAAGUUUGGAAAGGGCAGAGCUCAACACAGCGUGGCAAAGUGGCUGUGGCUAGACUGCCUCUCUGGAUUCCUCGUCACUCAGCAGGGCAUCUCUGAGAGAAAUGCC [U14C U15C C51A U52A] | 1.19
UACGUAGGUGGUUCUCCCCUGAUAGUGCUAAGGGGGCCUGGAAGUUUGGACUGGGCAGAGCUCAACACAGCGUGGCAAAGUGACUGUGGCUAGACUGCCUCUCUGGAUUCCUCGUCACUCAGCAGGGCAUCUCUGAGAGAAGUGCC [U14C G83A A142G] | 0.9
UACGUAGGUGGUUCUCCCCUGAUAGUGCUAAGGGGGCCUGGAAGUUUGGACUGGGCAGAGCUCAACACAGCGUGGCAAAGUGGCUGUAGCUAGACUGCCUCUCUGGAUUCCCCGUCACCCAGCAGGGCAUCUCUGAGAGAAAUGCC [U14C G88A U112C U119C] | 0.08
UACGUAGGUGGUUCUCCCCUGAUAGUGCUAAGGGGGCCUGGAAGUUUGGACUGGGCAGAGCUCAACACAGCGUGGCAAAGUGGCUAUGGCUAGACUGCCUCUCUGGAUUCCUCGACACUCAGCAGGGCAUCUCUGAGAGAAAAGCC [U14C G86A U115A U143A] | 0.04
UACGUAGGUGGUUCUCCCCUGAUAGUGCUAAGGGGGCCUGGAAGUUUGGACUGGGCAUAGCUCAACACAGCGUGGCAAAGUGGCUGUGGCUAGACUGCCUCACUGGGUUCCUCGUCACUCAGCAGGGCAUCUCUGAGAGAGAUGCC [U14C G58U U102A A107G A141G] | 0.1
UACGUAGGUGGUUCACCCCUGAUAGUGCUAAGGGAGCCUGGAAGUUUGGACUGGGCAGAGCCCAAUACAGCGUGACAAAGUGGCUGUGGCUAGACUGCCUCUCUGGGUUCCUCGUCACUCAGCAGGGCAUCUCUGAGAGAAAUGCC [U14C U15A G35A U62C C66U G75A A107G] | 0.06
UACGUAGGUGGUUCUCCCCUGAUAGUGCUAAGGGGGCCUGGAAGUUUGGACUGUGCAGAGCUCGGCACAGCGUGGCAAUGUGGCUGUGGCUAGACUGCCUCUCUGGAUUCCUCGUCACUCAGCAGGGCAUCUCUGAGAGAAAUGCC [U14C G54U A64G A65G A79U] | 0
UACGUAGGUGGUUCUCCCCUGAUAGUGCUAAGGGGGCCUGGAAGUUUGGACUGGGCAUAGCUCAACACAGCGUGGCAAAGUGGCUGUGGCUAGACUGCCUCUCUGGAUUCCUCGUCACUUAGCAGGGCAUCUCUGAGAGAAAUGCC [U14C G58U C120U] | 0.12
UACGUAGGUGGUUCUCCCCUGAUAGUGCUAAGGGGGCCUGGAAGUUUGGACUGGGCAGAGCUCAACACAGCGUGGCAAAGUGGCUGUGGCUAGACUGCCUCUCUGGAUUCCUCGUCACUCAGCAGGGCAUCUCUGAAAGAAGUGCC [U14C G137A A142G] | 1.13
UACGUAGGUGGUUCUCCCCUGAUAGUGCUAAGGGGGCCUGGAAGUUUGGACUGGGCAGAGCUCAACACAGCGUGGCAAAGUUGCUGUGGCUAGACUGCCUCUCCGGAUUCCUCGUCACUCAGCAGGGCAUCUCUGAGAGAAAUGCC [U14C G82U U104C] | 1.45

Source: the RNAGym collection of RNA variant scans (doi:10.7554/elife.90254)
